Measured values as given in the supplement of paper PMC12217912.
The other results are listed elsewhere or left out. Sequences were assembled here from the parent chain. Values near 0.05 are background.

B1: TEV protease; numbered along this chain (parent)
chain: MGESLFKGPRDYNPISSSICHLTNESDGHTTSLYGIGFGPFIITNKHLFRRNNGTLVVQSLHGVFKVKDTTTLQQHLVDGRDMIIIRMPKDFPPFPQKLKFREPQREERICLVTTNFQTKSMSSMVSDTSCTFPSGDGIFWKHWIQTKDGQCGSPLVSTRDGFIVGIHSASNFTNTNNYFTSVPKNFMELLTNQEAQQWVSGWRLNADSVLWGGHKVFMVKPEEPFQPVKEATQL

Variants of: B1
Test: raw area under fraction-flipped curve 0-4 h after induction (AUC4h, not background-subtracted), DNA-recorder readout of cleavage of the substrate (dimensionless); higher = more cleavage of the substrate by the protease variant
Details: temperature: 34 °C; time window: 0-4 h after rhamnose induction
Procedure: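 In vivo DNA recorder in E. coli TOP10(DE3) ΔrhaA at 34 °C. Each TEVp single-site mutant (parent TEVp 0) is paired with a single-site variant of the 7-mer TEVs (canonical ENLYFQ|S). The substrate sits between flexible linkers in a Bxb1-sfGFP-TEVs-SsrA fusion, so cleavage stabilises Bxb1 and speeds flipping of a recombination array, read by NGS. The value is the raw area under the fraction-flipped curve over 0-4 h after rhamnose induction (AUC4h), with ≥20 reads per time point. It is not background-subtracted; inactive controls average about 0.047.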
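Note: Bxb1 expression induced with 0.2% (w/v) L-rhamnose at OD600 near 0.5, cultures sampled hourly, flipped fraction per protease–substrate barcode pair counted by paired-end Illumina sequencing.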

| Variant | area with substrate ENLYAQS | area with substrate ENLYCQS | area with substrate ENLYDQS | area with substrate ENLYEQS | area with substrate ENLYGQS | area with substrate ENLYHQS | area with substrate ENLYIQS | area with substrate ENLYKQS | area with substrate ENLYMQS | area with substrate ENLYNQS | area with substrate ENLYPQS | area with substrate ENLYQQS | area with substrate ENLYRQS | area with substrate ENLYSQS | area with substrate ENLYTQS | area with substrate ENLYVQS | area with substrate ENLYWQS | area with substrate ENLYYQS | area with substrate ENLYLQS |
| --- | --- | --- | --- | --- | --- | --- | --- | --- | --- | --- | --- | --- | --- | --- | --- | --- | --- | --- | --- |
| MGESLFKGPRDYNPISSSIKHLTNESDGHTTSLYGIGFGPFIITNKHLFRRNNGTLVVQSLHGVFKVKDTTTLQQHLVDGRDMIIIRMPKDFPPFPQKLKFREPQREERICLVTTNFQTKSMSSMVSDTSCTFPSGDGIFWKHWIQTKDGQCGSPLVSTRDGFIVGIHSASNFTNTNNYFTSVPKNFMELLTNQEAQQWVSGWRLNADSVLWGGHKVFMVKPEEPFQPVKEATQL [C20K] | 0.0436 | 0.0338 | 0.0514 | 0.049 | 0.064 | 0.0481 | 0.0446 | 0.0382 | 0.0455 | 0.05 | 0.0528 | 0.0311 | 0.0504 | 0.0486 | 0.0418 | 0.0513 | 0.0438 | 0.0479 | – |
| MGESLFKGPRDYNPISSSICHLTNESDGHTTSLYGIGFGPFIITNKHLFRRNNGTLVVQSLHGVFKVKDTTTLQQHLTDGRDMIIIRMPKDFPPFPQKLKFREPQREERICLVTTNFQTKSMSSMVSDTSCTFPSGDGIFWKHWIQTKDGQCGSPLVSTRDGFIVGIHSASNFTNTNNYFTSVPKNFMELLTNQEAQQWVSGWRLNADSVLWGGHKVFMVKPEEPFQPVKEATQL [V78T] | 0.0634 | – | 0.0561 | 0.0482 | – | 0.0541 | 0.102 | 0.0589 | 0.0617 | 0.0559 | – | 0.0595 | 0.0415 | 0.0863 | 0.0807 | – | 0.0719 | 0.0293 | 0.0552 |
| MGESLFKGPRDYNPISSSICHLTNESDGHTTSLYGIGFGPFIITNKHLFRRNNGTLVVQSLHGVFKVKDTTTLQQHLVDGRDMIIIRMPKDFPPFPQKLKFREPQREERICLVTTNFQTKSMSSMVSDTSCTFPSGDGIFWKHWIQTKDGQCGSPLVSTRDGFIVGIHSASNFTNTNNYFTSVPKNFMELLTNQEAQQWVSGWRLNADSVLWGGHKVFMVKPEEPFQPVKLATQL [E231L] | 0.0694 | 0.099 | – | 0.0576 | – | 0.0593 | 0.111 | 0.0705 | – | 0.0769 | 0.108 | – | 0.062 | 0.0635 | – | – | – | – | 0.0772 |
| MGESLFKGPRDYNPISSSICHLTNESDGHTTSLYGIGFGPFIITNKHLFRRNNGTLVVQSLHVVFKVKDTTTLQQHLVDGRDMIIIRMPKDFPPFPQKLKFREPQREERICLVTTNFQTKSMSSMVSDTSCTFPSGDGIFWKHWIQTKDGQCGSPLVSTRDGFIVGIHSASNFTNTNNYFTSVPKNFMELLTNQEAQQWVSGWRLNADSVLWGGHKVFMVKPEEPFQPVKEATQL [G63V] | 0.0619 | 0.085 | 0.0551 | 0.0608 | 0.0654 | 0.0653 | 0.0973 | 0.0577 | – | 0.0598 | 0.0679 | 0.0695 | 0.0697 | 0.0652 | 0.0709 | 0.0987 | 0.0559 | 0.0508 | 0.0646 |
| MGESLFKGPRDYNPISSSICHLTNESDGHTTSLYGIGFGPFIITNKHLFRRNNGTLVVQSLHKVFKVKDTTTLQQHLVDGRDMIIIRMPKDFPPFPQKLKFREPQREERICLVTTNFQTKSMSSMVSDTSCTFPSGDGIFWKHWIQTKDGQCGSPLVSTRDGFIVGIHSASNFTNTNNYFTSVPKNFMELLTNQEAQQWVSGWRLNADSVLWGGHKVFMVKPEEPFQPVKEATQL [G63K] | 0.0605 | – | – | 0.0506 | 0.0617 | 0.0666 | – | – | – | 0.0666 | 0.0656 | – | 0.0634 | – | – | 0.104 | – | – | – |
| MGESLFKGPRDYNPISSSICHLTNESDGHTTSLYGIGFGPFIITNKHLFRRNNGTLVVQSLHGVFKVKDTTTLQQHLVDGRDMIIIRMPQDFPPFPQKLKFREPQREERICLVTTNFQTKSMSSMVSDTSCTFPSGDGIFWKHWIQTKDGQCGSPLVSTRDGFIVGIHSASNFTNTNNYFTSVPKNFMELLTNQEAQQWVSGWRLNADSVLWGGHKVFMVKPEEPFQPVKEATQL [K90Q] | 0.0787 | – | 0.0747 | – | 0.0742 | 0.0564 | 0.136 | 0.0335 | 0.0642 | – | 0.0611 | 0.053 | 0.052 | 0.0583 | – | 0.104 | – | – | – |
| MGESLFKGPRDYNPISSSICHLTNESDGHTTSLYGIGFGPFIITNKHLFRRNNGTLVVQSLHGVFKVKDTTTLQQHLVDGRDMIIIRMPKDFPPFPQKLKFREPQREERICLVTDNFQTKSMSSMVSDTSCTFPSGDGIFWKHWIQTKDGQCGSPLVSTRDGFIVGIHSASNFTNTNNYFTSVPKNFMELLTNQEAQQWVSGWRLNADSVLWGGHKVFMVKPEEPFQPVKEATQL [T115D] | 0.0919 | – | 0.0592 | 0.0644 | – | 0.0884 | – | 0.063 | 0.0868 | – | – | – | – | 0.074 | 0.0951 | 0.117 | 0.0918 | 0.0762 | 0.0915 |
| MGESLFKGPRDYNPISSSICHLTNESDGHTTSLYGIGFGPFIITNKHLFRRNNGTLVVQSLHGVFKVKDTTTLQQHLVDGRDMIIIRMPKDFPPFPQKLKFREPQREERICLVTTNFQTKSMSSMVSDTSCTFPSGDGIFWKHWIQTKDGQCGSPLVSTRDGFIVGIHSASNFTNTNNYFTSVPKNFMELLTNQEAQQWVSGWRLNADSVLWGGHKVFMVKPEEPFFPVKEATQL [Q227F] | 0.0655 | – | 0.035 | 0.0679 | – | – | – | 0.0787 | 0.0831 | – | – | 0.0514 | – | 0.0663 | 0.0779 | 0.119 | 0.0762 | – | – |
| MGESLFKGPRDYNPISSSICHLTNESDGHTTSLYGIGFGPFIITNKHLFRRNNGTLVVQSLHGVFKVKDTTTLQQHLVDGRDMIIIRMPKDFPPFPQKLKFREPQREERICLVTTNFQTKSMSSMVSDTSCTFPSGDGIFWKHWIQTKDGQCGSRLVSTRDGFIVGIHSASNFTNTNNYFTSVPKNFMELLTNQEAQQWVSGWRLNADSVLWGGHKVFMVKPEEPFQPVKEATQL [P155R] | 0.0626 | – | 0.054 | 0.055 | 0.0582 | 0.0485 | 0.0508 | 0.0483 | – | 0.0501 | 0.0483 | 0.065 | 0.052 | 0.0523 | – | 0.0491 | – | – | – |
